# Experimental data from PMC4336329 (PLoS ONE, 2015).
# Out of some 310,000 compounds screened, about 14,000 (4.5%) showed an effect of 50% or more. Effects have a minus sign here. Some of the results follow.
# Target: human ether-à-go-go-related gene (hERG) potassium channel (human, UniProt Q12809)
# Assay: primary screen, population patch clamp on CHO cells stably expressing hERG
# 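Further: peak tail current of the secondary pulse compared with the same well before compound.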
# human ether-à-go-go-related gene (hERG) potassium channel, sequence (Q12809 whole entry, looked up): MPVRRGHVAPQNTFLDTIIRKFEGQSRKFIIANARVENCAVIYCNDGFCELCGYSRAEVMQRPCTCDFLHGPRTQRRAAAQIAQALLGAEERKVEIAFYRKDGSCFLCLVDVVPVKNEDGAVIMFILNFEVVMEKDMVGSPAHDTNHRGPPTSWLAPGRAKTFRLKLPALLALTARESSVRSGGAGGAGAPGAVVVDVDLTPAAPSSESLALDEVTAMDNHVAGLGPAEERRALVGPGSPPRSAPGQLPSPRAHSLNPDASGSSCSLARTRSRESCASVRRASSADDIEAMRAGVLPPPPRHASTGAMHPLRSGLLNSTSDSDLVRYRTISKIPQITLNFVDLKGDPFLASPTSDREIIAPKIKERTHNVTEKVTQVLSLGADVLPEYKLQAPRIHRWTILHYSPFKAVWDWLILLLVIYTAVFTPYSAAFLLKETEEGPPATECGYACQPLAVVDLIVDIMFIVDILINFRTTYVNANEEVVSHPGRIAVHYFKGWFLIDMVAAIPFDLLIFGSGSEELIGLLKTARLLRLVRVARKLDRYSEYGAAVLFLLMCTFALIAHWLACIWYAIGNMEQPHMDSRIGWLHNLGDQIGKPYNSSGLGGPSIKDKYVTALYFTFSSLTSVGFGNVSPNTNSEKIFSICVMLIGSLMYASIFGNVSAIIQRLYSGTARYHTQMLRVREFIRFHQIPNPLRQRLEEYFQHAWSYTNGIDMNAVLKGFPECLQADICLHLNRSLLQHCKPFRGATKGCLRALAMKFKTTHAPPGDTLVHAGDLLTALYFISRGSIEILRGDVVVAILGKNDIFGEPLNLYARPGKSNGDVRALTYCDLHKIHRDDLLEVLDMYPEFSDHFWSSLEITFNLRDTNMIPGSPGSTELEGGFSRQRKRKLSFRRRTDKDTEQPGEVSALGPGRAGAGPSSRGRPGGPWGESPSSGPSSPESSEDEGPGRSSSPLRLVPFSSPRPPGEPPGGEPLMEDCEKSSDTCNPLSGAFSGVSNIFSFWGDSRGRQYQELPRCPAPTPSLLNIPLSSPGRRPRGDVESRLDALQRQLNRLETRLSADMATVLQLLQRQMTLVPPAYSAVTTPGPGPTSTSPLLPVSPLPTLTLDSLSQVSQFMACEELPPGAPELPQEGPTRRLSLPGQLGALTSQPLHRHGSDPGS
row,SMILES,"hERG current change (%, negative = inhibition) at 10uM [%]"
1,COc1ccc(Cl)cc1NC(=S)N(CCN1CCOCC1)C1CCN(C(C)=O)CC1,9.46
2,CN(Cc1cccs1)C(=O)c1ccc(S(=O)(=O)N2CCCCC2)cc1,-18.8
3,CC1=CC(=O)C2=C(C)CC[C@@H]3[C@H](OC(=O)[C@H]3C)[C@@H]12,-13
4,COc1ccccc1N(/N=C1\Sc2ccccc2C1=O)C(C)=O,2.52
5,Cc1c(NC(=S)N/N=C/C=C/c2ccccc2)c(=O)n(-c2ccccc2)n1C,11.2
6,CNC(=O)c1ccc(NC(=O)C2CCN(c3ncnc4sc(C)c(C)c34)CC2)cc1,14.8
7,COc1ccccc1N1C(=O)c2ccccc2NC1C(OC)OC (stereo not drawn),17
8,CCOc1ccc2oc(C(=O)N3CCN(Cc4ccccc4)CC3)c(C)c2c1,-18.4
9,CCc1cc(CNC(=O)c2cc(COc3ccc(C)nc3)on2)on1,4.58
10,Cn1ccnc1SCC(=O)c1ccc2ccccc2c1,22.3
11,O=C(NC1CC2CCCC(C1)N2C(=S)Nc1ccccc1)C1CC1 (stereo not drawn),12.7
12,Cn1c(SCC(=O)Nc2ccccc2F)nnc1-c1cc2ccccc2o1,-14.2
13,CC(=O)c1cccc(NC(=O)Cn2c(=O)oc3cc(S(=O)(=O)N4CCCC4)ccc32)c1,-4.33
14,COC/C=C/C1=CC2=CC(=O)C(C)(OC(=O)c3cnc4ccccc4n3)C(=O)C2=CO1 (stereo not drawn),14.8
15,O=C(O)/C=C/c1ccc(OCc2cccc(F)c2)cc1,34.5
16,Cc1ccc(-n2c(C)cc(C(=O)CSc3nnnn3C)c2C)cc1,-27
17,N#CC1=C(N)N2C(=C(C#N)C13CCCC3)Nc1ccccc12,8.94
18,COC(=O)c1ccccc1NC(=O)Oc1ccc(F)cc1,-2.77
19,CCOc1ccc(Br)cc1/C=N/O,-4.29
20,N#Cc1ccc[n+](CC(=O)c2ccc(NC(=O)c3ccccc3)cc2)c1.[Br-],-38.1
21,CCCCN(C(=O)CCC(=O)Nc1cc(C)on1)C(C(=O)NC1CCCC1)c1ccccc1OCC (stereo not drawn),-18.8
22,CCN(C(=O)COc1cc(=O)n(C)c2ccccc12)c1cccc(Cl)c1,-22.2

row,SMILES,"hERG current change (%, negative = inhibition) at 10uM [%]"
1,Cc1ccc(CNS(=O)(=O)c2cc3c(cc2C)NC(=O)CO3)cc1,-39.8
2,Cc1ccc(C)c2[nH]c(=O)c(CN(Cc3cccs3)C(=S)NCc3ccco3)cc12,-33
3,COc1ccccc1-c1ccc(=O)n(CC(=O)NC(C)(C)C)n1,14
4,COc1ccc(C(=O)NCc2ccc(S(N)(=O)=O)cc2)cc1[N+](=O)[O-],24.9
5,COc1ccc(C(=S)NCS(=O)(=O)c2ccc(C)cc2)cc1,-2
6,COc1ccc(OC)c(NC(=O)Nc2cc(C(=O)O)ccc2C)c1,13.1
7,CC(=O)c1c(OC(=O)c2cccc(Cl)c2)c2ccccc2n1C,1.11
8,Cc1nc(-c2cc(C#N)c(Sc3ccc(Cl)cc3Cl)nc2C)cs1,8.09
9,CCO[C@H]1OC(C(=O)NCc2nc3ccccc3[nH]2)=C[C@@H](C)[C@@H]1CCCO,2.83
10,O=C(CSCc1cnn(-c2ccccc2)c1-n1cccc1)NCc1cccnc1,-45.5
11,O=C(CSc1n[nH]c(-c2ccccc2)n1)Nc1ccccc1O,17
12,CSc1sc(C(=O)NNC(C)=O)c2c1C=CCC2,12.6
13,Cc1ccc(CN2C3CCCC2CC(NC(=O)c2ccc(C)cc2)C3)cc1 (stereo not drawn),-77.7
14,CC(C)(C)c1ccc(C(=O)N2CCNCC2)cc1.Cl,-16.7
15,CCn1cc(C(=O)OCC(=O)c2cc(C)n(-c3cccc(C(F)(F)F)c3)c2C)c(=O)c2ccc(C)nc21,-3.95
16,COc1ccc(C(=O)NC2CCN(S(=O)(=O)c3ccccc3)CC2)cc1,12.5
17,CCCCn1c(NC(=O)c2ccccc2Cl)c(C#N)c2nc3ccccc3nc21,9.41
18,S=c1[nH]nc(-c2cccs2)n1Cc1ccccc1,9
19,C/C(N)=C(/C#N)C(=O)COC(=O)CSc1ccc2ccccc2c1,4.78
20,CCOC(=O)c1sc(NC(=O)CSc2nnnn2-c2ccc(C)cc2)c(C(=O)OCC)c1C,5.35
21,CCN1C(=O)/C(=C2/Sc3ccc(OC)cc3N2C)SC1=Nc1cccc(O)c1,15.6
22,O=C(COc1ccc(S(=O)(=O)N2CCCC2)cc1)NCCC1=CCCCC1,-20.7

row,SMILES,"hERG current change (%, negative = inhibition) at 10uM [%]"
1,COc1cc(/C=C2/SC(=O)NC2=O)ccc1OC(=O)c1ccco1,-0.00422
2,O=C(COc1ccc(-n2ccnc2)cc1)Nc1cccc(Cl)c1,-38.9
3,Cc1csc(/C(=N/OC(=O)c2ccco2)C(N)=O)n1,-1.32
4,CN(Cc1c(C(=O)N(C)Cc2ccccc2)nc2ccccn12)CC1Cc2ccccc2O1 (stereo not drawn),-47.3
5,COc1ccc(OCc2nnc(SCC(=O)NCc3ccco3)o2)cc1,-14.4
6,O=C(Nc1ccnn1C1CCN(Cc2ccc(CO)o2)CC1)c1ccccc1Cl,-0.636
7,CCN1C(=O)C(O)(C2COC(C)(C)CC2=O)c2ccccc21 (stereo not drawn),21.4
8,CC(=O)c1c(O)c2ccccc2n(C2CCCCC2)c1=O,1.47
9,COc1ccc(NC2CCCN(C(=O)c3ccccc3C(F)(F)F)C2)cc1 (stereo not drawn),3.23
10,COc1ccc(-c2nnc(SC(C)C(=O)Nc3nccs3)n2-c2ccccc2)cc1OC (stereo not drawn),-6.58
11,COc1ccccc1NC(=O)C(C)OC(=O)COc1cccc2c1OC(C)(C)C2 (stereo not drawn),-8.46
12,CCOC(=O)N1CCC(NC(=O)c2cc(C(=O)NCc3cccc(Cl)c3)ccc2CO)CC1,0.828
13,CC(=O)c1cc(OC(=O)N2CCOCC2)ccc1OC(=O)N1CCOCC1,-3.71
14,CN(C)CCCn1c(SCC(=O)N2CC(=O)Nc3ccccc32)nc2ccccc2c1=O,-17.6
15,Cc1cccc(OC(=O)c2cccnc2)c1,15.1
16,Cc1ccc(S(=O)(=O)N2CCc3ccccc3C2CC(=O)O)cc1 (stereo not drawn),1.68
17,CC(C)c1ccc(C(=O)NNC(=O)C2CC=CCC2C(=O)O)cc1 (stereo not drawn),-2.41
18,CCc1nc2oc3ccccc3c(=O)c2cc1C(=O)OC,11.3
19,O=C(CSc1ccccn1)Nc1cccc(NC(=O)CSc2ccccn2)n1,-11.9
20,Cl.N#CCCNCC1(c2ccccc2)CCCC1,12.7
21,COc1cc(NC(=O)c2sc(C)nc2C)c(OC)cc1NC(=O)c1ccccc1,-10.5
22,O=C(Nc1nc(-c2ccccc2)cs1)c1ccc2c(c1)S(=O)(=O)c1ccccc1C2=O,25.9

row,SMILES,"hERG current change (%, negative = inhibition) at 10uM [%]"
1,CNC(=S)N1CCC(NC(=O)C23CC4CC(CC(C4)C2)C3)CC1,20.9
2,O=C1CC(C(=O)Nc2ccccc2)S/C(=N\N=C\c2ccco2)N1 (stereo not drawn),-10
3,COc1ccc(NC(=O)c2c(NC(=O)CCC(=O)O)sc(-c3ccccc3)c2C)cc1,5.27
4,COCC(C)n1c(SCC(=O)Nc2sccc2C(N)=O)nc2ccccc2c1=O (stereo not drawn),-16.5
5,O=c1[nH]c(CN2CCN(c3ccc(F)cc3)CC2)nc2ccccc12,-15.1
6,C#CCNc1c(C)c(C)nc2ncnn12,3.06
7,FC(F)Sc1ccc(Nc2ncnc3nc[nH]c23)cc1,1.42
8,O=[N+]([O-])c1cc(S(=O)(=O)/N=C(/c2ccccc2)N2CCOCC2)ccc1Cl,-23.9
9,CCOc1ccc2[nH]c3c(N4CCN(c5ccccn5)CC4)ncnc3c2c1,-59.4
10,Cc1ccc(Nc2nnc(SCC(=O)Nc3ccccc3[N+](=O)[O-])s2)cc1,7.88
11,O=C(Nc1cc(C(F)(F)F)ccc1Cl)c1cccnc1,-0.0865
12,Cc1nc(Nc2ccc(F)cc2)nc(Nc2ccc(F)cc2)c1[N+](=O)[O-],2.27
13,O=C1NC(=O)N(Cc2ccccc2Cl)C(=O)/C1=C/c1cccs1,11.8
14,CCN(CC(=O)NC(C)C)C(=O)c1ccc(S(=O)(=O)N(C)c2ccccc2OC)cc1,-2.53
15,Oc1ccccc1C(=S)N1CCN(c2cccc(Cl)c2)CC1,3.92
16,O=C(CNS(=O)(=O)c1cccs1)N1CCc2ccccc2C1,-14.5
17,NC(=O)c1ccc(NC(=O)COC(=O)CC2Sc3ccccc3NC2=O)cc1 (stereo not drawn),4.78
18,CC(=O)C1=C(C)OC(N)=C(C#N)C1c1cc([N+](=O)[O-])ccc1Cl (stereo not drawn),-9.43
19,COc1ccccc1CNC(=O)c1ccc(NC2=NC3CS(=O)(=O)CC3S2)cc1 (stereo not drawn),5.84
20,COCCn1c(SCC(=O)Nc2cc(C)on2)nc2ccccc21,7.56
21,O=C(NC(=O)c1cnccc1C(F)(F)F)Nc1ccccc1,-0.241
